# Laboratory results from paper PMC6919601, “Identification of Plasmodium dipeptidyl aminopeptidase allosteric inhibitors by high throughput screening” (PLoS ONE, 2019).
# Screen size: about 110,000 compounds; about 230 (0.21%) showed an effect of 50% or more. The list shows a part of the results.
# Biological target: DPAP1 (Plasmodium falciparum, UniProt Q8IIJ9)
# Experiment: primary screen, percent inhibition; read by cleavage of a fluorogenic dipeptide substrate; higher = more effect of the substance
# Design: species or system P. falciparum D10 trophozoite lysates; single well
# 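Further: 30 min substrate incubation versus DMSO and 10 µM JCP410 controls.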
# Sequence of DPAP1 (Q8IIJ9 whole entry, looked up): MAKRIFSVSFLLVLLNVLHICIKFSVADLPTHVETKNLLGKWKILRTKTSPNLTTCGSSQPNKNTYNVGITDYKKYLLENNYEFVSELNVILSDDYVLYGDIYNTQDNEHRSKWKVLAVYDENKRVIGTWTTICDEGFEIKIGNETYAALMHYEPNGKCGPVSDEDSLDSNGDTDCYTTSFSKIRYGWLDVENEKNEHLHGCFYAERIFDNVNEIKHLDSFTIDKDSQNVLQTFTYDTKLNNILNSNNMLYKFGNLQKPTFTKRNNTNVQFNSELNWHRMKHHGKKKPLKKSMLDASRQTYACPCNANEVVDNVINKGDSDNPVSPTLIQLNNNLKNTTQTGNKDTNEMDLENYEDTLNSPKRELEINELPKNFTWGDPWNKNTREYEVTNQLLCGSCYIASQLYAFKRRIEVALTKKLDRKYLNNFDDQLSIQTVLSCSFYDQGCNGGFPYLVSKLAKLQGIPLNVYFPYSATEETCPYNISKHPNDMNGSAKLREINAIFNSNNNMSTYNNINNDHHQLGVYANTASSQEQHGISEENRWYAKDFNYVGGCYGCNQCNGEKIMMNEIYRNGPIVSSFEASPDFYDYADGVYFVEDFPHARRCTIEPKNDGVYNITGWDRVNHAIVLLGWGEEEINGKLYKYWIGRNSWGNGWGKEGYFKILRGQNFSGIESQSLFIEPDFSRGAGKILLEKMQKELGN
row,Structure (SMILES),% Inhibition @ 10 uM [%]
1,CCCN1CCN(C(=O)c2cc3cc4ccc(C)cc4nc3s2)CC1,0.675
2,O=C1CC(C2CCCO2)C(=O)N1c1ccc(Cl)c(Cl)c1 (stereo not shown),-6.83
3,Cc1n[nH]c(C)c1CCCCOc1ccccc1F,-0.351
4,Cc1c2cnn(CC(=O)NC(C)C34CC5CC(CC(C5)C3)C4)c(=O)c2c(C)n1Cc1ccc(F)cc1 (stereo not shown),1.22
5,CC(C)COC(=O)c1ccc(NC(=O)c2cccc([N+](=O)[O-])c2)cc1,-7.32
6,CCCC1=C(C(=O)OCC)C(c2cc(OC)c(OC)c(OC)c2)C(C#N)=C(N)O1 (stereo not shown),-0.597
7,CC(=O)N1N=C(c2ccccc2)CC1c1cccc(O)c1 (stereo not shown),-1.2
8,COc1ccc(-c2nc3n(n2)C(c2ccc4c(c2)OCO4)C(C(=O)Nc2cccnc2)=C(C)N3)cc1 (stereo not shown),0.275
9,CC(C)CC(=O)Nc1cccc(Oc2ccc3c(c2)C(=O)NC3=O)c1,0.889
10,CC(=O)N(C1=NCCCCS1)c1ccccc1,6.08
11,COc1ccc(-c2cn3nc(N4CCCC(C(=O)NCc5cccnc5)C4)sc3n2)cc1 (stereo not shown),3.46
12,CCc1ccc(-c2cc3c(=O)n(CC(=O)NCc4ccc5c(c4)OCO5)nc(C)n3n2)cc1,-2.85
13,O=C(NCc1cccnc1)c1ccc(CSc2nc3cccnc3n2Cc2cccc(F)c2)cc1,9.02
14,COc1ccc(CCNC(=O)CSc2nc3c(c(=O)n2Cc2ccccc2)SCC3)cc1OC,-1.97
15,Cc1ccc(S(=O)(=O)N2CCN(Cc3csc(C)n3)CC2)cc1,-4.91
16,CC(C)(C)NCC(O)CO/N=C(\c1ccncc1)c1ccc(Br)cc1 (stereo not shown),-2.42
17,Cc1[nH]c2ccccc2c1C=C1C(=O)OC2(CCCC2)OC1=O,-10.5
18,COc1cc(/C=C/c2nc(C#N)c(N(C)C)o2)cc(OC)c1OC,2.54
19,CSc1ccc(C2C(C#N)=C(N)Oc3c2c(C)nn3-c2ccccc2)cc1 (stereo not shown),-1.08
20,O=C(Nc1ccccc1C(F)(F)F)C1CC(=O)N(c2ccccc2Cl)C1 (stereo not shown),-4.75
21,O=C(O)CC1(c2ccccc2)C(=O)c2ccccc2C1=O,4.98

row,Structure (SMILES),% Inhibition @ 10 uM [%]
1,CCOc1ccc(-n2cc(-c3ccccc3)c3c(N4CCN(C)CC4)ncnc32)cc1,5.08
2,CCCCNC(=O)Cn1ncc2c(=O)oc3ccc(C)cc3c21,-3.45
3,CCCC(=O)Nc1ccc(S(=O)(=O)N2CCc3ccccc32)cc1,0.777
4,O=C(c1ccccc1NC(=O)C(F)(F)F)N(c1ccccc1)c1ccc2ccccc2c1,0.605
5,NC(=O)c1c(NC(=O)c2ccccc2C(=O)O)sc2c1CCCC2,5.92
6,Oc1ccc(Br)cc1-c1nc2ccccc2s1,-5.33
7,COc1ccc(C2C(C(=O)Nc3ccccn3)=C(C)Nc3ncnn32)c(OC)c1 (stereo not shown),-6.7
8,O=C1c2ccccc2C(=O)N1CC1NCCc2ccccc21 (stereo not shown),-3.63
9,O=C(C/C=C/c1ccccc1)O/N=C1/CCSc2ccccc21,11.8
10,O=C(O)[C@H]1C2CCCCC2=C2CCCCC2[C@@H]1c1ccccc1 (stereo partly shown),1.64
11,CC(NC(=O)Cn1ncc2c3ccccc3nc-2c1O)c1ccccc1 (stereo not shown),-2.71
12,Cc1ccc(CS(=O)Cc2ccc(C(=O)NCc3ccc(OC(C)C)cc3)o2)cc1 (stereo not shown),-0.154
13,COc1cccc(NC(=O)NCc2ccccc2Cl)c1,-5.82
14,CCOC(=O)c1sc(NC(=O)c2cc(-c3ccc(C)s3)nc3ccccc23)nc1C,-1.1
15,COC(=O)c1cc(-c2cccc(OC)c2)c2c(=O)[nH]c(=O)n(C)c2n1,-2.28
16,Cc1nc2c(c(C)c1CCC(=O)NCC(N)=O)c(=O)n(C)c(=O)n2C,-3.1
17,O=C(CNC(=S)N(Cc1ccc(F)cc1)C1CCCCC1)NCCN1CCOCC1,-0.406
18,Cc1nc2c(c(N)c1C)CCC2,-3.16
19,Cc1ccccc1Cc1c(C)nc2nc(SCC(=O)NCCCN3CCCCC3)nn2c1C,1.5
20,CCN(CC)C(=O)COc1ccc(C2C(C#N)=C(N)Oc3[nH]nc(C(C)(C)C)c32)cc1OC (stereo not shown),1.08
21,COc1ccccc1Oc1ccc(NC(=O)c2cc3cc(Br)ccc3o2)cn1,1.76

row,Structure (SMILES),% Inhibition @ 10 uM [%]
1,COc1ccc(-c2cc(C(F)(F)F)nc(SCC(=O)NCc3cccs3)n2)cc1,-4.85
2,CCOC(=O)c1cc(-c2ccc(F)cc2)n(CC(=O)NCCCN(CC)CC)c1C,-0.176
3,COc1ccc2c(CNCCc3ccccc3OC)c(C(=O)O)n(Cc3ccccc3)c2c1,3.09
4,COC(=O)c1ccccc1S(=O)(=O)NC(=O)Nc1nc(-c2cccs2)cc(C(F)(F)F)n1,-2.72
5,Cc1ccccc1C(=O)Nc1sc2c(c1C#N)CCCC2,-2.8
6,O=C(Nc1ccc(Br)c2cccnc12)c1ccco1,0.716
7,CCCC(=O)CSc1nc(O)cc(C)c1C#N,2.76
8,COc1ccc(/C=C/C(=O)N2CCN(Cc3ccc4c(c3)OCO4)CC2)cc1,-2.98
9,COc1ccc(C2C(C#N)=C(N)N(c3nc[nH]n3)C3=C2C(=O)CCC3)cc1OC (stereo not shown),-1.98
10,Cc1ccc(S(=O)(=O)N2CCC(C(=O)N3CCC(C(=O)NCc4cccnc4)CC3)CC2)cc1,-1.34
11,CC12CCC(C(=O)Nc3ccncc3)(c3nc4ccccc4nc31)C2(C)C (stereo not shown),-5.31
12,CC1(C)Cc2c(sc3[nH]c(=S)n(C4CCCCC4)c(=O)c23)CO1,-7.54
13,N#Cc1ccc(C(=O)Nc2cccc(C(F)(F)F)c2)c(F)c1,-1.82
14,N#CSc1ccc(N/C=C2/C(=O)NC(=O)N(c3cccc(Cl)c3)C2=O)cc1,5.89
15,O=C(Nc1cccc(-c2nc3ncccc3o2)c1)c1cccc2ccccc12,7.47
16,CCOc1ccc(C2=CC(c3ccccc3F)n3ncnc3N2)cc1Cl (stereo not shown),0.0842
17,CC(C)(C)c1ccc(C(CC(=O)O)NC(=O)c2ccco2)cc1 (stereo not shown),2.57
18,Cc1ccc2c(CN3CCN(Cc4ccccc4F)CC3)cc(=O)oc2c1,0.635
19,CN1CCN(CCCNC(=O)c2ccc3c(c2)sc2nc(-c4ccccc4)cn23)CC1,11.9
